The data set concerns ATP. The data set can be described thus: switch fluorescence ratio, 500 uM ATP over buffer (Cy3 cluster intensity, sum of 5 cycles each) (fold (ratio)); higher = stronger signal-on switching upon ATP binding; sequences stand for … in TCGTCGGCAGCGTCAGATGTGTATAAGAGACAGTTTTTTTTTTTTTTTTTTTTTTTTT…TC. As to conditions: aptamer strand: ATP DNA aptamer (quencher-CACCTGGGGGAGTATTGCGGAGGAAGG + anchor), 100 nM annealed; ATP concentration: 500 uM; one replicate. The gist of the method: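 After annealing to 100 nM quencher-labelled ATP aptamer, Cy3-labelled switching-strand clusters on a modified Illumina MiSeq flow-cell were imaged in selection buffer. A second image followed after 15 min with 500 uM ATP at 22 °C, and five such buffer/ATP cycles were done, each separated by NaOH stripping and re-annealing. The fluorescence ratio, averaged per switch-domain sequence, is summed target-cycle over summed buffer-cycle Cy3 intensity per cluster, with clusters outside 100-1000 RFU excluded.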

Sequences with one replicate were seen in a single cluster, so their values are uncertain.
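Further: ATP exposure 15 min at 22 °C before imaging.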

With AAAAGGTATA, the switch fluorescence ratio came to 0.984.

Regarding AGATGTGTCC, the switch fluorescence ratio was 1.03.

Take TCCGAAATG: the switch fluorescence ratio was determined as 1.02.

For GAACTTCATT, the switch fluorescence ratio turned out to be 0.986.

In the case of CCTGCGCGTA, the switch fluorescence ratio is 5.76.

On to ACCATTCCTT, for which the switch fluorescence ratio was determined as 1.05.

Take CCATCGACCT: the switch fluorescence ratio was determined as 1.17.

Turning to GATGTGTTCA, the switch fluorescence ratio came to 1.01.

Take GGGAAATGCT: the switch fluorescence ratio is 1.01.

TTGAAGTTA: the switch fluorescence ratio was found to be 1.04.

As to AGACAAGGG, the switch fluorescence ratio amounted to 1.02.

Take GCGCGACTCG: the switch fluorescence ratio is 1.05.

With TGGATCTATA, the switch fluorescence ratio is 1.01.

With CTCAGTGGAC, the switch fluorescence ratio worked out at 1.54.

Consider CCTCGGGATA, for which the switch fluorescence ratio was 2.22.

TCGCGTGTCA: the switch fluorescence ratio came out at 1.04.

For TGCCGGCATG, the switch fluorescence ratio amounted to 0.948.

Consider TCCAAGTAGC, for which the switch fluorescence ratio came out at 1.07.

Consider GTCACATG, for which the switch fluorescence ratio worked out at 1.02.

Take GCAAGTAGTG: the switch fluorescence ratio was 1.05.

As for TAAGACGACA, the switch fluorescence ratio amounted to 1.06.

Turning to AGTTCACAGC, the switch fluorescence ratio came to 0.999.

As for ATATATTACG, the switch fluorescence ratio came to 1.04.

As for GGGGAACTCT, the switch fluorescence ratio turned out to be 1.

Regarding TCAGAGTCCT, the switch fluorescence ratio came out at 0.991.

AAATAAATAT: the switch fluorescence ratio was 1.04.

As to CAAAAGCGGA, the switch fluorescence ratio was 0.962.

On to ACTCAGGTTC, for which the switch fluorescence ratio is 1.09.

CCCCTGGACC: the switch fluorescence ratio is 1.04.

For the sequence ACGATTCGGG, the switch fluorescence ratio amounted to 1.02.

Take ATGAGGGTT: the switch fluorescence ratio amounted to 1.03.

Consider AAAAACCCAT, for which the switch fluorescence ratio turned out to be 1.1.

With GATAAGATCG, the switch fluorescence ratio was 1.03.

Turning to CTTGCTAAGC, the switch fluorescence ratio is 1.08.

As for CTCTGTAAGA, the switch fluorescence ratio came to 1.14.

In the case of TGCAGACACA, the switch fluorescence ratio is 1.04.

For the sequence CATCATGCGT, the switch fluorescence ratio was determined as 1.

For ACATACAGCG, the switch fluorescence ratio stood at 1.25.

Turning to AAATCCGCCC, the switch fluorescence ratio amounted to 1.81.

For the sequence ATCATTTTCC, the switch fluorescence ratio is 1.08.

As for CACGGGTACT, the switch fluorescence ratio turned out to be 1.24.

With ACAATGTTCC, the switch fluorescence ratio was found to be 1.14.

In the case of TGTGTCGT, the switch fluorescence ratio was 0.974.

On to AAGGCATTAA, for which the switch fluorescence ratio is 1.23.

For AGAGTTTATA, the switch fluorescence ratio was found to be 1.

For the sequence CTACGTAGT, the switch fluorescence ratio came out at 1.01.

Regarding GTGGATAGGG, the switch fluorescence ratio came out at 1.03.

For ACTCCTGCTG, the switch fluorescence ratio was found to be 1.39.

On to TTGATCATGT, for which the switch fluorescence ratio worked out at 0.994.

ATATCTCGCG: the switch fluorescence ratio amounted to 0.984.

Take TGAGAGACAC: the switch fluorescence ratio is 1.04.

As to ATACGCACCG, the switch fluorescence ratio amounted to 1.02.

In the case of ATAATGGGTG, the switch fluorescence ratio is 1.12.

In the case of TTGCCTCTGG, the switch fluorescence ratio stood at 0.978.

On to AGATGGTTTT, for which the switch fluorescence ratio was 0.984.

As to AAACGGTGGG, the switch fluorescence ratio came to 1.03.

As for ATTCTAATTA, the switch fluorescence ratio was 0.999.

With CTGGACTTTA, the switch fluorescence ratio was found to be 1.06.

Regarding TCGCACAATA, the switch fluorescence ratio was determined as 1.47.

As for CCGGCATAGG, the switch fluorescence ratio worked out at 1.2.

Regarding TGGTCGGCTC, the switch fluorescence ratio came to 0.944.

With TTGTGAATAG, the switch fluorescence ratio amounted to 0.983.

For GGGGGGA, the switch fluorescence ratio is 1.04.

As to CGGGCTTTGC, the switch fluorescence ratio was determined as 0.988.

Consider GCGGATGCCA, for which the switch fluorescence ratio amounted to 1.01.

In the case of CCCTGGGTTT, the switch fluorescence ratio is 1.05.

Turning to AAAGAGGTAT, the switch fluorescence ratio is 1.03.

As for ACATGAAGCG, the switch fluorescence ratio was determined as 0.974.

For ATCTGCGTTA, the switch fluorescence ratio was 1.02.

As to GGTCTGGG, the switch fluorescence ratio worked out at 0.977.

For AATCGCGTAT, the switch fluorescence ratio was 0.966.

On to AATATATGAA, for which the switch fluorescence ratio amounted to 1.

In the case of CGGTTTGACC, the switch fluorescence ratio came to 1.

In the case of TGGATATTCG, the switch fluorescence ratio was found to be 1.01.

With CGTGTTCAAT, the switch fluorescence ratio worked out at 1.06.

Turning to GGGCGAGCGT, the switch fluorescence ratio was 0.978.

In the case of AGATTACGAT, the switch fluorescence ratio came out at 1.01.

For CTTCACTGGG, the switch fluorescence ratio was 1.02.

For AGGGTTGTAA, the switch fluorescence ratio is 0.998.

On to AAACATCGTA, for which the switch fluorescence ratio was determined as 1.02.

For AACAAGAGTC, the switch fluorescence ratio came to 1.07.

In the case of GCATAACGGC, the switch fluorescence ratio stood at 0.988.

For the sequence TCTGTCGATA, the switch fluorescence ratio came to 1.06.

Regarding GGGGGGTG, the switch fluorescence ratio came out at 1.05.

TGAGAGGCAG: the switch fluorescence ratio is 0.954.

With TCGGGATGCA, the switch fluorescence ratio came to 0.976.

In the case of GTGGTTCACT, the switch fluorescence ratio came out at 0.991.

On to TAACCCACCG, for which the switch fluorescence ratio was 1.28.

Take AAATGAAATA: the switch fluorescence ratio amounted to 0.938.

Consider ATGTAGGGTA, for which the switch fluorescence ratio was 1.01.

With CTAAATTCCT, the switch fluorescence ratio turned out to be 1.07.

Regarding AAACCCGTTG, the switch fluorescence ratio came to 1.01.

Regarding TGCGATACGC, the switch fluorescence ratio is 1.25.

Take GCCCGGTCCA: the switch fluorescence ratio was found to be 1.

For TTGATCAAAC, the switch fluorescence ratio was determined as 1.07.

GTCTGAGAGC: the switch fluorescence ratio was 1.07.

Regarding CCTGGTAAAA, the switch fluorescence ratio is 0.992.

As for TGATTCGTAG, the switch fluorescence ratio is 1.05.

Take TATATGTGGA: the switch fluorescence ratio was found to be 1.

As for ACGAGGCTAT, the switch fluorescence ratio worked out at 3.85.

With TGCCGCGGGT, the switch fluorescence ratio was determined as 0.961.

Regarding ACTTCAATAG, the switch fluorescence ratio turned out to be 1.12.

For the sequence GCCCATGCTC, the switch fluorescence ratio is 1.21.

On to AGATCGATGT, for which the switch fluorescence ratio came out at 0.961.

GGTTGATCGC: the switch fluorescence ratio is 0.966.

On to CCAAGAGCTC, for which the switch fluorescence ratio stood at 1.01.

With TACGCACACC, the switch fluorescence ratio amounted to 3.02.

With AGGCGAGACG, the switch fluorescence ratio came out at 1.06.

As for TACATGTAAC, the switch fluorescence ratio was determined as 1.03.

Consider CATTTAGTGC, for which the switch fluorescence ratio was 0.849.

Consider CATCGAGTGC, for which the switch fluorescence ratio was found to be 1.04.

In the case of GACTGTTGGA, the switch fluorescence ratio came out at 0.922.

GCAATGGCGG: the switch fluorescence ratio was found to be 1.04.

Take CTGCCTTTCG: the switch fluorescence ratio came to 1.05.

In the case of GTGTGTCTCA, the switch fluorescence ratio amounted to 0.999.

With TCGGTAGACG, the switch fluorescence ratio came out at 0.902.

As to AGACCCGCCC, the switch fluorescence ratio is 1.3.

TTGAGTGAGA: the switch fluorescence ratio worked out at 1.04.

Regarding AGCCGGATCG, the switch fluorescence ratio worked out at 0.982.

On to CCTAAATTAG, for which the switch fluorescence ratio was found to be 1.01.

The values are drawn from the supplement of paper PMC10126150.
